The source of these data is publication PMC5895051.

Protein sequences, listed by entry. Tags and fused reporters are not part of them.
UniProt O75800: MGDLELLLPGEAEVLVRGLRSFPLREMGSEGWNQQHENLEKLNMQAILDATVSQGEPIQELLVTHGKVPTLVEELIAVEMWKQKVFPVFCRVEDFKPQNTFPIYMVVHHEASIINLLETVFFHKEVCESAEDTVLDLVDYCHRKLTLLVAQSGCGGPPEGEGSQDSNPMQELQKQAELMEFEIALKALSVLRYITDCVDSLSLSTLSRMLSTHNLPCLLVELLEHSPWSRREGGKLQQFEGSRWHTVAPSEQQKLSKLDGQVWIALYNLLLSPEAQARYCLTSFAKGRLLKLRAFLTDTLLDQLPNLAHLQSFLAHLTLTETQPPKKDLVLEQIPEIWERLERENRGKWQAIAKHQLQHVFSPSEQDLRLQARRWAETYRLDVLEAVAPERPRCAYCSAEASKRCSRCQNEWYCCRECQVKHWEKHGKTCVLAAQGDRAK
UniProt P11142: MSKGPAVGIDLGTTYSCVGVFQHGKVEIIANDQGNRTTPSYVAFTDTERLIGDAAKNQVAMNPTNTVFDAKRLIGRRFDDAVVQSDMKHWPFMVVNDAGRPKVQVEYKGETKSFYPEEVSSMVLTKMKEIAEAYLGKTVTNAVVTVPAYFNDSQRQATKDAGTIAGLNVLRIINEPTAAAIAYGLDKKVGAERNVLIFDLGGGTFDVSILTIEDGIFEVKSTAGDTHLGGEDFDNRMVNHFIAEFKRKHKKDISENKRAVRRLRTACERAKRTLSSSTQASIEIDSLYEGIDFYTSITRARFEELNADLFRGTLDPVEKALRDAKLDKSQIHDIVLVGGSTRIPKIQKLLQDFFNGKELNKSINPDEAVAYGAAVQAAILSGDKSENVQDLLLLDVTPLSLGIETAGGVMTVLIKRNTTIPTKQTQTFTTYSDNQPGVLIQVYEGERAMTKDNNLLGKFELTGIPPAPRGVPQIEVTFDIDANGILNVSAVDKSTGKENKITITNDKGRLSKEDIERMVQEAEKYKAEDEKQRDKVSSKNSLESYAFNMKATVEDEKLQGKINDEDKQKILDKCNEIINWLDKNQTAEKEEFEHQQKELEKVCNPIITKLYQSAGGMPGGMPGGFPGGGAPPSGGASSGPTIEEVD
UniProt Q9WTM5: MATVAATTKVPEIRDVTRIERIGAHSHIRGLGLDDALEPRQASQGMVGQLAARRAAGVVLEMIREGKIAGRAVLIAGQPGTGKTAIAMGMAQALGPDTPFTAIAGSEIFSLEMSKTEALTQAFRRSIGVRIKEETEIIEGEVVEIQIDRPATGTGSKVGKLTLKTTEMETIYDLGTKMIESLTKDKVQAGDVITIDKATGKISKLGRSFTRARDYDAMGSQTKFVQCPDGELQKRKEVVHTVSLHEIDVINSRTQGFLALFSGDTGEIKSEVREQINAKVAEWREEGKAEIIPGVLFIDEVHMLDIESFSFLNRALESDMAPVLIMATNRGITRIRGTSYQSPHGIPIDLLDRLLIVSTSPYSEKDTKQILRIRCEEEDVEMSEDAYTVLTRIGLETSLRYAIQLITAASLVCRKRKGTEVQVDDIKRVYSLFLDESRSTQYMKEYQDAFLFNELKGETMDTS

Assay [1] has as its target FLAG-tagged ZMYND10 (zinc finger MYND-type-containing 10) (UniProt O75800). In words: co-IP; FLAG-ZMYND10 alone transfected into HEK 293T cells; immunoprecipitated with anti-FLAG antibodies, blotted with anti-HSC70 antibodies (endogenous partner).
Assay [2] shares this target. In words: co-IP; constructs cotransfected into HEK 293T cells; immunoprecipitated with anti-FLAG M2 or anti-c-Myc affinity gels, immunoblot. For orientation: A western blot detects proteins with antibodies after separation by electrophoresis.
The target of assay [3] is GST-ZMYND10, full-length protein (UniProt O75800). Kind of assay: pull-down; purified GST-ZMYND10 (full length) or GST-MYND as bait; lysates from mTECs; immunoblot; only the target purified.

No constants are given. Whether binding was seen depends on the method and setting. In cells and extracts the contact can be indirect. Some binding calls cover weakened binding; strength is not graded here.

For the substance “HSC70 (heat shock cognate protein 70), endogenous (from UniProt P11142 1-646)”, the binding result in assay [1] is “binds”.
As for “Myc-HSC70 (heat shock cognate protein 70) (from UniProt P11142 1-646)”, the binding result in assay [2] was “binds”.
“REPTIN, endogenous in mouse tracheal epithelial cells (from UniProt Q9WTM5 1-463)”: the binding result in assay [3] is recorded as “binds”.
